Our source for the self-cleavage values is the RNAGym collection of RNA variant scans (doi:10.1093/nar/gkz1192).

The source gives no read counts; variants with many changes may rest on few reads.

B1: CPEB3 Ribozyme (parent)
chain: UAACAGGGGGCCACAGCAGAAGCGUUCACGUCGCAGCCCCUGUCAGAUUCUGGUGAAUCUGCGAAUUCUGCUGUAUAUCUC

The series covers variants of B1. As to the kind of experiment: self-cleavage, relative activity (ratio to wild type); higher = more cleavage; in vitro, sequencing. The gist of the method:
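Barcoded CPEB3 ribozyme mutants, produced by rounds of error-prone PCR, self-cleaved while being transcribed with T7 RNA polymerase for 5 hours at 37°C and during a subsequent 15 min DNase I step before EDTA was added. Sequencing of template-switched cDNA on Illumina gave cleaved and total reads, and DNA sequencing assigned barcodes to variants. Each variant's relative activity is its cleaved/total read fraction divided by the unmutated ribozyme's fraction, averaged across three batches. A variant needed a minimum of 5 reads.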
A15U A21U U26A A65G: the self-cleavage was determined as 0.13.
The same measure for A15U A21G A45U U66C U69A: 0.06; for A15U A20G U25C A28C A47G U48C U80C: 0.
For A15U C68G A77C, the self-cleavage came out at 0.14.
Take A15U C44U U51C A64G U78C: the self-cleavage was 0.11.
Turning to A15U G16C U31A G42U U58C U72A, the self-cleavage is 0.11.
As for A15U C50G A56U A75U, the self-cleavage came out at 0.23.
Consider A15U C34G G42A A56U, for which the self-cleavage stood at 0.06.
On to A15U A35U A45G, for which the self-cleavage turned out to be 0.41.
As for A15U A20G U41A U49C C62A, the self-cleavage was determined as 0.21.
For A15U A47G U69C, the self-cleavage was found to be 0.23.
With A15U C38A U51C A64G, the self-cleavage is 0.22.
Next, A15U A21G C44U C50G U72C U80A: 0.12; A15U A21G G33A A35G C38A U69A: 0.13; A15U U25C C39U A47G U49C U51G U54C: 0.15.
As to A15U A21G U31C, the self-cleavage was found to be 0.17.
The same measure for A15U A21G U41C C50G U60C A77U: 0.07.
As to A15U G30C U41A U51A, the self-cleavage was found to be 0.31.
For A15U G33C U60C U72C, the self-cleavage was found to be 0.07.
Take A15U A64G U69C: the self-cleavage worked out at 0.35.
A15U A57G U67C: the self-cleavage came to 0.12.
On to A15U A21G A28U G63A, for which the self-cleavage amounted to 0.09.
Next, A15U A35U U69A A75G: 0.17.
For A15U A56G A57G, the self-cleavage worked out at 0.43.
With A15U A56G A57U, the self-cleavage turned out to be 0.14.
As for A15U A47G U66C, the self-cleavage stood at 0.11.
Turning to A15U U25C U26C A45G U78C, the self-cleavage came out at 0.25.
As to A15U A28G U41C U69C, the self-cleavage is 0.43.
For the variant A15U A21G A57G U60C A64C, the self-cleavage came to 0.15.
For the variant A15U G16A A18U U51C U72C, the self-cleavage is 0.13.
For A15U A28G C50G U54C, the self-cleavage stood at 0.17.
For the variant A15U C27U U41C U43C U49A U54C G73C, the self-cleavage is 0.13.
The same measure for A15U G30U U60A U67C: 0.1; for A15U A65U U72C: 0.36.
As to A15U A35C A45G U48C U54A C68A, the self-cleavage stood at 0.07.
Consider A15U A20G U54C A64G, for which the self-cleavage was determined as 0.22.
For the variant A15U A20G U48C U69A, the self-cleavage amounted to 0.1.
The same measure for A15U A21U A35G U49C U67C: 0.11; for A15U A20G U26C U41A G61C: 0.28.
Turning to A15U U25A A47G, the self-cleavage came to 0.08.
In the case of A15U A21G U43C U54C U58C U69G, the self-cleavage is 0.26.
Next, A15U A45G A64U U69A: 0.14.
In the case of A15U C38A U41C, the self-cleavage amounted to 0.22.
Next, A15U A21G G42A A64U: 0.07.
On to A15U A20U A56G U80C, for which the self-cleavage is 0.07.
In the case of A15U C17U U41C A65G U80C, the self-cleavage is 0.13.
For the variant A15U A20U C38A A56G C62U, the self-cleavage is 0.05.
The same measure for A15U G33A U72C: 0.25.
The same measure for A15U A35U C38U U41A: 0.08; for A15U A28U U41C: 0.31.
As for A15U C27A U41C U67C, the self-cleavage worked out at 0.2.
Regarding A15U A20G U66C U78C, the self-cleavage is 0.28.
For the variant A15U C29U U67C, the self-cleavage is 0.04.
As for A15U A45G G55A U72A, the self-cleavage is 0.44.
With A15U A28G G46A U49G A64U, the self-cleavage was determined as 0.1.
Take A15U G19U G24C: the self-cleavage worked out at 0.28.
Consider A15U A20U U69C U78C, for which the self-cleavage came out at 0.06.
For A15U A64G A77U, the self-cleavage was determined as 0.54.
As to A15U A28U C29U U49C U51A A56G, the self-cleavage was found to be 0.12.
On to A15U A21U A56G, for which the self-cleavage was found to be 0.36.
For A15U A28U A65G A77G, the self-cleavage came out at 0.12.
On to A15U C38G G42A, for which the self-cleavage is 0.08.
For the variant A15U A28G U60A U78A, the self-cleavage stood at 0.08.
Take A15U G16U U31C A64G: the self-cleavage stood at 0.08.
On to A15U A45C A57G U74C, for which the self-cleavage worked out at 0.09.
Next, A15U A20G A35U U58C U60A U74G: 0.13; A15U C38U U54C: 0.74; A15U A35G U48C A57G U69C U72C: 0.9.
Take A15U A20G U26C U41A U54A U66C U78C: the self-cleavage is 0.06.
Take A15U A20G U41C: the self-cleavage is 0.43.
For A15U C37U A56U A65U U80C, the self-cleavage amounted to 0.1.
As to A15U C23U U48A U69G, the self-cleavage amounted to 0.17.
The same measure for A15U A20G U43C A57U: 0.49; for A15U A28G C29U U41A U48C: 0.06.
Next, A15U G19U A21G A57G A64G U69C U72C: 0.06.
With A15U G22U U67C C68U, the self-cleavage was 0.12.
Take A15U A35U A56G U76A: the self-cleavage was 0.58.
On to A15U A20G A45G A64G, for which the self-cleavage worked out at 0.2.
A15U A35G A64G U67C: the self-cleavage was found to be 0.42.
Consider A15U C29U G52A, for which the self-cleavage worked out at 0.38.
For A15U A45G U51C U69C U72C, the self-cleavage was determined as 0.27.
Consider A15U A56G C81U, for which the self-cleavage came out at 0.96.
In the case of A15U G16U A18U U41A A57G A64U U80C, the self-cleavage came out at 0.17.
For A15U G24A G30U, the self-cleavage came to 0.41.
On to A15U A28U A64G U80A, for which the self-cleavage was determined as 0.36.
Turning to A15U A20G A45C A64U U78C, the self-cleavage was 0.06.
For A15U A21G C62A, the self-cleavage was 0.2.
Take A15U G30A U60A U67C: the self-cleavage was 0.09.
As to A15U A21C C40A C50U, the self-cleavage was 0.12.
Regarding A15U U25C A35C U41A A57G, the self-cleavage was determined as 0.32.
Consider A15U A45G A47G U72A, for which the self-cleavage is 0.17.
In the case of A15U A28U A47U C62U A65G, the self-cleavage is 0.16.
The same measure for A15U A28G A64G: 0.15; for A15U A20G U48C U60A: 0.1; for A15U A56G A64U: 0.21.
Regarding A15U A45G U49A A75C, the self-cleavage is 0.28.
As for A15U C32U U48C, the self-cleavage is 0.09.
Regarding A15U A47U G73C U78A, the self-cleavage was determined as 0.61.
With A15U A45G G55A U60C, the self-cleavage was determined as 0.5.
On to A15U A20G A77G, for which the self-cleavage worked out at 0.29.
Turning to A15U A20G U43A A45U A57G U58C, the self-cleavage was 0.16.
As to A15U A21G U43C A47G, the self-cleavage is 0.16.
A15U C23A U31G A75U: the self-cleavage stood at 0.06.
A15U G63A A64U U80G: the self-cleavage is 0.15.
Regarding A15U G16A U43C A56G U80C, the self-cleavage is 0.44.
Consider A15U A21G G24U U48G U54C A77G, for which the self-cleavage worked out at 0.03.
As for A15U A20G U41C A64G, the self-cleavage is 0.48.
On to A15U G30U U43A U54A U60A, for which the self-cleavage came out at 0.07.
A15U A21G U43C: the self-cleavage is 0.53.
As to A15U G16A A56G, the self-cleavage is 0.52.
The same measure for A15U G16U A20G U43C A56G U80C: 0.39; for A15U G63U A64G A65G U66A: 0.01.
As to A15U A28G U31A U69C, the self-cleavage was determined as 0.04.
For the variant A15U G16C G22A A56U U58C U72A, the self-cleavage stood at 0.12.
As for A15U C32A A35G C40U, the self-cleavage came to 0.08.
Take A15U A20U U31A U67C: the self-cleavage worked out at 0.34.
Take A15U A45G U49A: the self-cleavage came to 0.16.
Consider A15U G70C U76C U78C, for which the self-cleavage is 0.11.
Consider A15U A56U U58C U66C U72A U74A, for which the self-cleavage is 0.14.
For the variant A15U C29U G52A A57G U69C, the self-cleavage was 0.1.
As to A15U A28G U66A, the self-cleavage is 0.21.
With A15U U25A A28U U69C, the self-cleavage was 0.07.
With A15U A47U U51C U66C, the self-cleavage turned out to be 0.11.
In the case of A15U A20G A75U, the self-cleavage worked out at 0.48.
As to A15U A20U C23U A35G G42A, the self-cleavage came to 0.07.
Next, A15U C59U U60A: 0.2; A15U U25C A64G U67G: 0.09; A15U A20G U54C: 0.17.
For A15U A35U U51A, the self-cleavage came to 0.93.
For the variant A15U C17U C34U U49C C50U A65G U78A, the self-cleavage amounted to 0.04.
The same measure for A15U A21U A65U: 0.11; for A15U G30U A35C U60A: 0.1.
For A15U A28G U60C G61A U76G, the self-cleavage was found to be 0.09.
The same measure for A15U A28U C29U U43A U60G: 0.07; for A15U A28G U48C: 0.57; for A15U C23A U54G: 0.17.
The same measure for A15U A20G A47U U54C: 0.23.
The same measure for A15U A21G G33A A35G U69A: 0.32; for A15U A28C C39A U51C U74C A75G: 0.08; for A15U A21U C44A C59G U60C: 0.14.
Take A15U G24A U43C A65G: the self-cleavage came out at 0.18.
The same measure for A15U A20G G24U U43C U49A U69C: 0.1; for A15U A20U U26C A75U: 0.23; for A15U A20U U43C U54A U66C U67C U74C: 0.
Regarding A15U U25A U31C A45C G63A, the self-cleavage came out at 0.08.
In the case of A15U G46U U51C, the self-cleavage came out at 0.16.
Consider A15U U25C A57G, for which the self-cleavage stood at 0.22.
For the variant A15U A21U U25C C27A U54C A64G, the self-cleavage amounted to 0.08.
Regarding A15U A47G A77G, the self-cleavage is 0.86.
Next, A15U C39G A64U: 0.15; A15U G33A C34U A45G U54C: 0.17.
The same measure for A15U G19A U25C U54A: 0.26; for A15U G30U U31A A35U A56G: 0.06.
A15U G30U U72A: the self-cleavage is 0.12.
For the variant A15U G22A A45G U51C A57G, the self-cleavage worked out at 0.14.
As for A15U A56U A64G U74C U76C, the self-cleavage came out at 0.3.
Consider A15U A28U U48C U72G A77G, for which the self-cleavage was found to be 0.24.
In the case of A15U A47G U54C A64G U69A, the self-cleavage was 0.12.
Regarding A15U C27U C37A, the self-cleavage was found to be 0.1.
For A15U C17U A35G U67C, the self-cleavage was 0.1.
With A15U G19U A28G C40U, the self-cleavage worked out at 0.12.
As for A15U A20G U26C, the self-cleavage is 0.16.
A15U C17U A77G: the self-cleavage was 0.25.
The same measure for A15U A28G A45G C81U: 0.07; for A15U G16U U48C G61C U66C U76G: 0.01.
For A15U A20G A65G U80A, the self-cleavage came out at 0.42.
Regarding A15U A35U U49C A64U U72A U80A, the self-cleavage stood at 0.1.
